Experimental data: PubChem BioAssay AID504332 (National Center for Advancing Translational Sciences (NCATS), 2011)
Several values for one entry are separate records, joined by “and”; a condition that tells them apart may be missing. Equal values may be shown once. The whole screen tested about 350,000 compounds, of which about 31,000 (8.9%) were called active. Inconclusive results, whose numbers are uncertain, are shown with a selection of clear calls. Calls come from the whole dose curve; as a rule, active = well fitted inhibition curve with a large enough effect; inconclusive = small, poorly fitted or top-dose-only effect; inactive = no such curve, though single readings can be large or run the other way. Where the call is inconclusive, the potency comes from a doubtful curve fit. More than one record can exist for a structure, and the calls need not agree.

target: Histone-lysine N-methyltransferase EHMT2 (Homo sapiens) (UniProt Q96KQ7); assay: qHTS Assay for Inhibitors of Histone Lysine Methyltransferase G9a; details: G9a H3K9 monomethylation, AlphaScreen, 2 h; activity, negative = inhibition: at 59 µM (top of the series) unless noted; note: nearly all actives have a fitted effect of over 75% in size
Chain of UniProt Q96KQ7 (Q96KQ7 whole entry, looked up): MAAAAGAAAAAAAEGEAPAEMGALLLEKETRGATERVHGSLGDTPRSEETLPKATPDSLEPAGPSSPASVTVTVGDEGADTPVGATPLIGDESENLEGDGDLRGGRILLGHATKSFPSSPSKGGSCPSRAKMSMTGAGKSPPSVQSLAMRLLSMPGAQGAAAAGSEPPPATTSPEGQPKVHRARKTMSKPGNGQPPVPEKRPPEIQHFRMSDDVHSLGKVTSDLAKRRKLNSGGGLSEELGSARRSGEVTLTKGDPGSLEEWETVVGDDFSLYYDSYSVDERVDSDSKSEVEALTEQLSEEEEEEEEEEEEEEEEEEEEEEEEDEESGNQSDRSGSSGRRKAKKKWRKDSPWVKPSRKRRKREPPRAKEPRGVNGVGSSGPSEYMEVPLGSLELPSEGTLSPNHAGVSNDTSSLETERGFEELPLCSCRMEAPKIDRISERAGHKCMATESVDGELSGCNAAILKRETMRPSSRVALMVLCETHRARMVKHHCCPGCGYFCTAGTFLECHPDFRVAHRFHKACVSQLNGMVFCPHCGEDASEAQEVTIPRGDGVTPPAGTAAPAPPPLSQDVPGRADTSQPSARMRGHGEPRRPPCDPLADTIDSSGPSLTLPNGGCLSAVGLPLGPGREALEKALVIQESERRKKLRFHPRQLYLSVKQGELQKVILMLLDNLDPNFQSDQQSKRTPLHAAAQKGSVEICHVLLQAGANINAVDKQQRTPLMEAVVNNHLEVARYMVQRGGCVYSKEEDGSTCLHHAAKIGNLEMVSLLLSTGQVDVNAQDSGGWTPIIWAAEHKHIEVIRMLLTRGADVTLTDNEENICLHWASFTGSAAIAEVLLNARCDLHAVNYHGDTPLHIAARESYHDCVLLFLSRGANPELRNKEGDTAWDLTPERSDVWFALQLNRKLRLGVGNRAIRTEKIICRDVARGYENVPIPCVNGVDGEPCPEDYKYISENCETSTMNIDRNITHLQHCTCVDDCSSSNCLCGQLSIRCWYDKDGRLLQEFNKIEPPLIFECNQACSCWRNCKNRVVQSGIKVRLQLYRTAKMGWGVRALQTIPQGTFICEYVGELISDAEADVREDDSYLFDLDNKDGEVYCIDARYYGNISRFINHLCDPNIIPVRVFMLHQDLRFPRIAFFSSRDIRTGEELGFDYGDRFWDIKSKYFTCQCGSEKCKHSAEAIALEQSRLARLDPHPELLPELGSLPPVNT
Summary of the method: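 Chemiluminescent proximity detection of H3K9 monomethylation, read after 10 min bead incubation in the dark. Reaction: 20 nM G9a, 500 nM biotin-H3K9 peptide, 20 uM SAM cofactor, 2 h, room temperature, following 15 min enzyme-compound preincubation.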
% is set by controls: 0 for no effect and ±100 for the full control effect; potency is the fitted concentration of half-maximal effect; tags give direction and shape of the fitted curve.

How did the Potency turn out when `CCOc1ccccc1-c1cc(C(=O)Nc2ccc(C(=O)O)cc2)c2ccccc2n1` was run?
The Potency was inconclusive: 89.1 µM [inhibitor, single point].

Which Potency does the source give for `OCc1cc(C(O)CNCCCCCCOCCCCc2ccccc2)ccc1O` (centres undefined) here?
The Potency was active: 35.5 µM.

With `Cc1ccc(C(=O)COC(=O)COc2ccccc2[N+](=O)[O-])s1` as the molecule, how does the activity, negative = inhibition read?
The activity, negative = inhibition was inactive: 5.39% [at 12.7 µM].

`COc1cc(/C=C2\SC(=S)N(NS(=O)(=O)c3ccccc3)C2=O)cc(OC)c1OC` was tested. Which Potency did it give?
Its Potency is inconclusive: 44.7 µM [inhibitor, partial curve, poor fit].

How did the activity, negative = inhibition turn out when `N#Cc1cnc2c(-c3ccccc3)c(-c3ccccc3)nn2c1N` was run?
Its activity, negative = inhibition is inactive: 13.5% [at 12.7 µM].

`C[C@]12CC[C@@H]3c4ccc(O[C@@H]5O[C@H](C(=O)O)[C@@H](O)[C@H](O)[C@H]5O)cc4CC[C@H]3[C@@H]1C[C@@H](O)[C@@H]2O` was tested. Which activity, negative = inhibition did it give?
Its activity, negative = inhibition is inconclusive: -90.3% [inhibitor].

With `CCN(CC)c1ccc(NC(=O)CCc2nc3cccnc3n2Cc2cccs2)c(C)c1` as the molecule, how does the Potency read?
The Potency was active: 8.91 µM.

`OCCN1CCN(Cc2cc(Br)cc(Br)c2O)CC1` was tested. Which Potency did it give?
Its Potency is inconclusive: 3.16 µM [inhibitor, partial curve, poor fit].

For `CCOc1ccc(NC(=O)CN(C)C(=O)c2c(C)nn(-c3ccccc3)c2Cl)cc1OCC`, which Potency is on record?
The Potency was inconclusive: 50.1 µM [inhibitor, partial curve].

`CCOC(=O)c1c(C)[nH]c(C)c1C(=O)COC(=O)CCOc1ccccc1OC` was tested. Which Potency did it give?
The Potency was inconclusive: 79.4 µM [inhibitor, single point].

Which Potency does the source give for `Cc1cc2c(cc1C)NC(CC(=O)Nc1cccc(Cl)c1)C(=O)N2` (centres undefined) here?
Its Potency is inconclusive: 14.1 µM [inhibitor, partial curve, poor fit].

Which Potency does the source give for `CCOC(=O)c1sc(NCC2CCCO2)nc1C` (centres undefined) here?
The Potency was inconclusive: 39.8 µM [inhibitor, single point].

How did the activity, negative = inhibition turn out when `CC(=O)c1c(C)[nH]c(C(=O)OCC(=O)Nc2sc3c(c2C#N)CCC(C)C3)c1C` (centres undefined) was run?
Its activity, negative = inhibition is inactive: 15% [at 12.7 µM].

For `c1ccc(C2=NNC(c3ccco3)=Nc3ccccc32)cc1`, which Potency is on record?
The Potency was inconclusive: 50.1 µM [inhibitor, partial curve, poor fit].

For `CCOc1ccc(N2CC(O)Cn3c2nc2c3c(=O)n(CCCc3ccccc3)c(=O)n2C)cc1` (centres undefined), which Potency is on record?
Its Potency is active: 2.51 µM.

With `Cc1ccccc1NC(=O)c1ccc2c(O)c(S(=O)(=O)c3ccccc3)c(=O)[nH]c2c1` as the molecule, how does the Potency read?
Its Potency is “inactive and active: 50.1 µM”.

For `C=CCN=C1S/C(=C/c2ccc([N+](=O)[O-])cc2)C(=O)N1CC=C`, which Potency is on record?
The Potency was inconclusive: 7.08 µM [inhibitor, full curve].

For `Cn1c(=O)cc2c3c(c(N4CCCCC4)ccc31)C(=O)c1ccccc1-2`, which Potency is on record?
Its Potency is active: 14.1 µM.

Which Potency does the source give for `CNc1ccc(-c2nc(-c3ccco3)no2)cc1[N+](=O)[O-]` here?
Its Potency is inconclusive: 3.55 µM [inhibitor, partial curve, poor fit].

`Cc1nn(Cc2c(Cl)cccc2Cl)c(C)c1NC(=O)c1cn(-c2ccccc2)nc1-c1ccccc1` was tested. Which Potency did it give?
The Potency was inconclusive: 1.78 µM [inhibitor, partial curve, poor fit].

For `COCCc1nc2ccc(C(=O)N(C)Cc3cccc(-n4nc(C)cc4C)c3)cc2o1`, which Potency is on record?
Its Potency is inconclusive: 25.1 µM [inhibitor, single point].

Which Potency does the source give for `COc1ccc(NC(=O)C(c2cc3c(cc2[N+](=O)[O-])OCO3)N(C)c2ccccc2)cc1` (centres undefined) here?
Its Potency is inconclusive: 8.91 µM [inhibitor, partial curve].

For `Cc1ccc(SCc2cc(=O)[nH]c(/N=C(\N)Nc3ccc(C)c(C)c3)n2)cc1`, which Potency is on record?
The Potency was “inactive”.

For `CCOC(=O)c1ccc(N2Cc3ccccc3C2=N)cc1`, which Potency is on record?
Its Potency is “inactive”.

With `COc1ccccc1/C=C1\SC(=S)N(CC(=O)NC2CCS(=O)(=O)C2)C1=O` (centres undefined) as the molecule, how does the Potency read?
Its Potency is “inactive”.

With `CCC(=O)NC(c1ccccc1Cl)c1c(O)ccc2ccccc12` (centres undefined) as the molecule, how does the Potency read?
Its Potency is inconclusive: 25.1 µM [inhibitor, single point].

For `O=C1NC2(CCc3ccccc32)C(=O)N1CCOc1ccc(Cl)cc1` (centres undefined), which Potency is on record?
Its Potency is “inactive”.

`Cn1nnnc1SCCCNCc1ccc(-c2ccc(F)c(Cl)c2)o1` was tested. Which Potency did it give?
The Potency was inconclusive: 22.4 µM [inhibitor, partial curve, poor fit].

With `CN(Cc1ccc(F)cc1)S(=O)(=O)c1nnc(NC(=O)c2ccccc2Cl)s1` as the molecule, how does the Potency read?
The Potency was inconclusive: 5.01 µM [inhibitor, single point].

For `NC1=C([N+](=O)[O-])C(c2ccc3c(c2)OCO3)C2=C(CCCC2=O)O1` (centres undefined), which Potency is on record?
Its Potency is inconclusive: 79.4 µM [inhibitor, single point].

Which Potency does the source give for `CC(C)(C)c1cnnn1-c1ccc(/C=N/Nc2ccc([N+](=O)[O-])cc2)cc1` here?
The Potency was “inactive”.

How did the Potency turn out when `Cc1cccc(C(=O)Nc2cccc(C(=O)N/N=C/c3ccccn3)c2)c1` was run?
The Potency was inconclusive: 89.1 µM [inhibitor, single point].

How did the activity, negative = inhibition turn out when `O=C(OCc1c(-c2ccccc2)ncc2ccccc12)c1cccc(Br)c1` was run?
The activity, negative = inhibition was inactive: -1.99% [at 0.501 µM].

`O=C(Cc1ccc2c(c1)OCCO2)Nc1cc(Cl)ccc1N1CCOCC1` was tested. Which Potency did it give?
Its Potency is inconclusive: 89.1 µM [inhibitor, partial curve, poor fit].

`Cc1cc(C)cc(NS(=O)(=O)c2ccc(N3CCCCS3(=O)=O)cc2)c1` was tested. Which Potency did it give?
The Potency was “inactive”.

With `c1ccc(-c2cnc(CSc3ncnc4sccc34)o2)cc1` as the molecule, how does the Potency read?
Its Potency is active: 14.1 µM.

With `COC1CCCCC1Nc1cc(C)ccc1C` (centres undefined) as the molecule, how does the Potency read?
Its Potency is active: 20 µM.

How did the Potency turn out when `O=C(CN1CSCC1=O)N1CCN(S(=O)(=O)c2ccc(Cl)cc2)CC1` was run?
Its Potency is “inactive”.

How did the Potency turn out when `CSc1ccc(CNc2ccccn2)cc1` was run?
Its Potency is active: 44.7 µM.

`CC1Oc2ccccc2C=C1/C=C1/SC(N2CCOCC2)=NC1=O` (centres undefined) was tested. Which Potency did it give?
Its Potency is inconclusive: 89.1 µM [inhibitor, partial curve, poor fit].

Which Potency does the source give for `O=S(=O)(/N=C(/Sc1ccccc1)c1ccccc1)c1ccccc1` here?
The Potency was “inactive”.

For `CCc1nnc(NC(=O)c2ccc(S(=O)(=O)N(C)c3ccccc3)cc2)o1`, which Potency is on record?
The Potency was “inactive”.

For `Cc1c(C(=O)N2CCC(N3CCSCC3)CC2)oc2c(F)cccc12`, which Potency is on record?
Its Potency is inconclusive: 89.1 µM [inhibitor, single point].

How did the Potency turn out when `CCC(=O)N1CCN(c2ccc(Cl)cc2NC(=O)c2ccc([N+](=O)[O-])o2)CC1` was run?
The Potency was inconclusive: 20 µM [inhibitor, partial curve, poor fit].
